This is one part of the list. At the low end of the ranking the order means little.

For the test, the target named is GST-SBP-SLBP (stem-loop binding protein) (UniProt Q14493). The experiment in a line: targeted RNA Bind-n-Seq.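 Further: DESeq read counts versus GST-SBP nonspecific binding control pulldown.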 The settings on record: RBNS binding buffer: 25 mM Tris pH 7.5, 150 mM KCl, 3 mM MgCl2, 0.1% Tween, 0.5 mg/mL BSA, 1 mM DTT; 27 nM protein, 750 pM RNA pool; temperature not stated; high values mean tight binding.
For “GGUCACGUCUCAAUCAACUCUUCUCCCAGGGAAACCCCUGGCUAUCUCAACAGCUCGCAGUCAAG”, the binding signal (log2 fold change) turned out to be 0.00505.
In the case of “GGUCACGUCUCAAUCAACUCAUCUUCCAGGGAAACCCCUGGUUAUUUCAACAGCUCGCAGUCAAG”, the binding signal (log2 fold change) was -0.331.
Next, “GGUCACGUCUCAAUCAACUCUUCCUCAGGAGUUUCCUCCUGUAAAUUCAACAGCUCGCAGUCAAG”: 0.0259; “GGUCACGUCUCAAUCAACUCAUCUUCAGGAGUUUUCUCCUGCUUAGUCAACAGCUCGCAGUCAAG”: 0.163.
On to “GGUCACGUCUCAAUCAACUCAUCCCCAGGAGUUUCCUCCUGUAUUUUCAACAGCUCGCAGUCAAG”, for which the binding signal (log2 fold change) worked out at 0.149.
On to “GGUCACGUCUCAAUCAACUCUACAGAGGGGGGGAAAACCCCUUUACCCUCCAUCUCAACAGCUCGCAGUCAAG”, for which the binding signal (log2 fold change) is -0.129.
As for “GGUCACGUCUCAAUCAACUCAGUUCCAGGAGUUUACUCCUGCAAAUUCAACAGCUCGCAGUCAAG”, the binding signal (log2 fold change) stood at 0.082.
On to “GGUCACGUCUCAAUCAACUCAUCUCCAGGAGUUUCCUCCUGUUAACUCAACAGCUCGCAGUCAAG”, for which the binding signal (log2 fold change) is 0.0138.
As for “GGUCACGUCUCAAUCAACUCAAUCUCCAGGGAAAGCCCUGGUAUUCUCAACAGCUCGCAGUCAAG”, the binding signal (log2 fold change) was -0.142.
Next, “GGUCACGUCUCAAUCAACUCUUCGUCCAGGGAAAACCCUGGUAUAUUCAACAGCUCGCAGUCAAG”: -0.346; “GGUCACGUCUCAAUCAACUCUAUCCCAGGAGUUUACUCCUGCUAUUUCAACAGCUCGCAGUCAAG”: 0.157.
Next, “GGUCACGUCUCAAUCAACUCAUCCUCCAGGGAAAGCCCUGGUAAACUCAACAGCUCGCAGUCAAG”: -0.23; “GGUCACGUCUCAAUCAACUCUUCGUCAGGAGUUUACUCCUGCUAAUUCAACAGCUCGCAGUCAAG”: 0.0101.
Next, “GGUCACGUCUCAAUCAACUCAUUUCCCAGGGAAAUCCCUGGUAAUCUCAACAGCUCGCAGUCAAG”: 0.14; “GGUCACGUCUCAAUCAACUCAUUCUCCAGGGAAAUCCCUGGCUUACUCAACAGCUCGCAGUCAAG”: 0.115; “GGUCACGUCUCAAUCAACUCCAUCGAGGGGGGGAAAACCCCUUUACCCUCAUCAUCAACAGCUCGCAGUCAAG”: 0.201.
For the sequence “GGUCACGUCUCAAUCAACUCUAUUCCCAGGGAAACCCCUGGUUAAUUCAACAGCUCGCAGUCAAG”, the binding signal (log2 fold change) is -0.0713.
With “GGUCACGUCUCAAUCAACUCAUCGUCAGGAGUUUACUCCUGCUAUCUCAACAGCUCGCAGUCAAG” the figure was 0.215; with “GGUCACGUCUCAAUCAACUCAUCUCCAGGAGUUUUCUCCUGUUUAGUCAACAGCUCGCAGUCAAG”, 0.117.
“GGUCACGUCUCAAUCAACUCUUCGUCCAGGGAAACCCCUGGUAAUCUCAACAGCUCGCAGUCAAG”: the binding signal (log2 fold change) came out at 0.18.
With “GGUCACGUCUCAAUCAACUCCUCAGAGGGGGGGAAAACCCCUUUACCCUCCAAUUCAACAGCUCGCAGUCAAG” the figure was -0.431; with “GGUCACGUCUCAAUCAACUCAUUCCCCAGGGAAAUCCCUGGCUAACUCAACAGCUCGCAGUCAAG”, 0.243; with “GGUCACGUCUCAAUCAACUCACAAGAGGGGGGGAAAACCCCUUUACCCUCGGAAUCAACAGCUCGCAGUCAAG”, -0.0942.
Next, “GGUCACGUCUCAAUCAACUCAUCAGAGGGGGGGAAAACCCCUUUGCCCUCAUCUUCAACAGCUCGCAGUCAAG”: 0.0385; “GGUCACGUCUCAAUCAACUCAAUCUCAGGAGUUUCCUCCUGCAUACUCAACAGCUCGCAGUCAAG”: 0.181.
“GGUCACGUCUCAAUCAACUCAAUUUCCAGGGAAACCCCUGGCAUUCUCAACAGCUCGCAGUCAAG”: the binding signal (log2 fold change) was -0.0943.
Next, “GGUCACGUCUCAAUCAACUCAUUCCCCAGGGAAACCCCUGGUUUAUUCAACAGCUCGCAGUCAAG”: -0.302; “GGUCACGUCUCAAUCAACUCACUAGAGGGGGGGAAAACCCCUUUACCCUCACCAUCAACAGCUCGCAGUCAAG”: 0.198.
Next, “GGUCACGUCUCAAUCAACUCUAAAGAGGGGGGGAAAACCCCUUUACCCUCCGUUUCAACAGCUCGCAGUCAAG”: -0.438; “GGUCACGUCUCAAUCAACUCACUCGAGGGGGGGAAAACCCCUUUACCCUCAAAAUCAACAGCUCGCAGUCAAG”: -0.0986.
“GGUCACGUCUCAAUCAACUCUACGCCAGGAGUUUUCUCCUGUAAAUUCAACAGCUCGCAGUCAAG”: the binding signal (log2 fold change) was 0.254.
Take “GGUCACGUCUCAAUCAACUCCCUCGAGGGGGGGAAAACCCCUUUACCCUCAAUAUCAACAGCUCGCAGUCAAG”: the binding signal (log2 fold change) was -0.0806.
In the case of “GGUCACGUCUCAAUCAACUCUUACGAGGGGGGGAAAACCCCUUUGCCCUCACAUUCAACAGCUCGCAGUCAAG”, the binding signal (log2 fold change) was -0.344.
Next, “GGUCACGUCUCAAUCAACUCAUCUCCCAGGGAAAGCCCUGGCAUAUUCAACAGCUCGCAGUCAAG”: 0.0799; “GGUCACGUCUCAAUCAACUCUUCCCCCAGGGAAAUCCCUGGCAAUUUCAACAGCUCGCAGUCAAG”: 0.000768.
Next, “GGUCACGUCUCAAUCAACUCAACUCCCAGGGAAACCCCUGGCAAACUCAACAGCUCGCAGUCAAG”: -0.036; “GGUCACGUCUCAAUCAACUCCUAAGAGGGGGGGAAAACCCCUUUACCCUCCACCUCAACAGCUCGCAGUCAAG”: -0.16; “GGUCACGUCUCAAUCAACUCUAUCCCCAGGGAAAGCCCUGGUUUUCUCAACAGCUCGCAGUCAAG”: 0.0973.
Next, “GGUCACGUCUCAAUCAACUCCAAAGAGGGGGGGAAAACCCCUUUACCCUCCAAAUCAACAGCUCGCAGUCAAG”: -0.0423.
Regarding “GGUCACGUCUCAAUCAACUCAAUUCCCAGGGAAACCCCUGGCUUUCUCAACAGCUCGCAGUCAAG”, the binding signal (log2 fold change) amounted to 0.183.
Next, “GGUCACGUCUCAAUCAACUCAGUUUCAGGAGUUUCCUCCUGCAUAUUCAACAGCUCGCAGUCAAG”: 0.0857.
Consider “GGUCACGUCUCAAUCAACUCAUCCCCCAGGGAAACCCCUGGUUAAUUCAACAGCUCGCAGUCAAG”, for which the binding signal (log2 fold change) is -0.15.
In the case of “GGUCACGUCUCAAUCAACUCAUUUUCCAGGGAAAGCCCUGGCUAAUUCAACAGCUCGCAGUCAAG”, the binding signal (log2 fold change) was 0.256.
With “GGUCACGUCUCAAUCAACUCAUUCCCAGGAGUUUCCUCCUGCAAACUCAACAGCUCGCAGUCAAG” the figure was 0.0114; with “GGUCACGUCUCAAUCAACUCAACAGAGGGGGGGAAAACCCCUUUACCCUCGAAAUCAACAGCUCGCAGUCAAG”, -0.127; with “GGUCACGUCUCAAUCAACUCAUUCCCCAGGGAAAACCCUGGUAUUUUCAACAGCUCGCAGUCAAG”, 0.19.
For “GGUCACGUCUCAAUCAACUCUUUUUCCAGGGAAAACCCUGGUUUUUUCAACAGCUCGCAGUCAAG”, the binding signal (log2 fold change) is -0.139.
With “GGUCACGUCUCAAUCAACUCAUUAGAGGGGGGGAAAACCCCUUUGCCCUCAACUUCAACAGCUCGCAGUCAAG” the figure was -0.542; with “GGUCACGUCUCAAUCAACUCUACUCCCAGGGAAAACCCUGGUUUACUCAACAGCUCGCAGUCAAG”, 0.104; with “GGUCACGUCUCAAUCAACUCAACGCCAGGAGUUUACUCCUGUUAUUUCAACAGCUCGCAGUCAAG”, 0.0856.
“GGUCACGUCUCAAUCAACUCAUCUCCAGGAGUUUACUCCUGUUAUCUCAACAGCUCGCAGUCAAG”: the binding signal (log2 fold change) was -0.0937.
On to “GGUCACGUCUCAAUCAACUCUUUCCCAGGAGUUUACUCCUGUAUUCUCAACAGCUCGCAGUCAAG”, for which the binding signal (log2 fold change) is -0.00238.
Regarding “GGUCACGUCUCAAUCAACUCUUCCUCAGGAGUUUUCUCCUGCAUUCUCAACAGCUCGCAGUCAAG”, the binding signal (log2 fold change) amounted to 0.00296.
Next, “GGUCACGUCUCAAUCAACUCAUUCCCAGGAGUUUGCUCCUGCUUUCUCAACAGCUCGCAGUCAAG”: 0.132; “GGUCACGUCUCAAUCAACUCCUCAGAGGGGGGGAAAACCCCUUUACCCUCACAUUCAACAGCUCGCAGUCAAG”: 0.026.
Take “GGUCACGUCUCAAUCAACUCUACAGAGGGGGGGAAAACCCCUUUACCCUCACCAUCAACAGCUCGCAGUCAAG”: the binding signal (log2 fold change) was -0.0333.
Turning to “GGUCACGUCUCAAUCAACUCUCUCGAGGGGGGGAAAACCCCUUUACCCUCAACAUCAACAGCUCGCAGUCAAG”, the binding signal (log2 fold change) is 0.151.
Next, “GGUCACGUCUCAAUCAACUCUUUUCCAGGAGUUUUCUCCUGCAAUCUCAACAGCUCGCAGUCAAG”: -0.0416.
Next, “GGUCACGUCUCAAUCAACUCAUCUUCCAGGGAAAUCCCUGGCAUUCUCAACAGCUCGCAGUCAAG”: -0.174; “GGUCACGUCUCAAUCAACUCCCUAGAGGGGGGGAAAACCCCUUUGCCCUCAUUUUCAACAGCUCGCAGUCAAG”: -0.0984.
With “GGUCACGUCUCAAUCAACUCAACAGAGGGGGGGAAAACCCCUUUACCCUCACUAUCAACAGCUCGCAGUCAAG” the figure was 0.12.
Regarding “GGUCACGUCUCAAUCAACUCCUUCGAGGGGGGGAAAACCCCUUUACCCUCUUUCUCAACAGCUCGCAGUCAAG”, the binding signal (log2 fold change) was -0.286.
For the sequence “GGUCACGUCUCAAUCAACUCAACUCCCAGGGAAAUCCCUGGCUUUCUCAACAGCUCGCAGUCAAG”, the binding signal (log2 fold change) amounted to 0.0469.
With “GGUCACGUCUCAAUCAACUCUAUUCCCAGGGAAAACCCUGGCAAAUUCAACAGCUCGCAGUCAAG” the figure was 0.0588; with “GGUCACGUCUCAAUCAACUCAUUCUCAGGAGUUUUCUCCUGCAAAUUCAACAGCUCGCAGUCAAG”, 0.0846; with “GGUCACGUCUCAAUCAACUCACACGAGGGGGGGAAAACCCCUUUACCCUCAAAUUCAACAGCUCGCAGUCAAG”, -0.436.
As to “GGUCACGUCUCAAUCAACUCGUCUUCAGGAGUUUUCUCCUGCAAUUUCAACAGCUCGCAGUCAAG”, the binding signal (log2 fold change) was determined as 0.0409.
With “GGUCACGUCUCAAUCAACUCCUACGAGGGGGGGAAAACCCCUUUACCCUCCAUAUCAACAGCUCGCAGUCAAG”, the binding signal (log2 fold change) is -0.291.
In the case of “GGUCACGUCUCAAUCAACUCAACUCCAGGAGUUUACUCCUGUUAUUUCAACAGCUCGCAGUCAAG”, the binding signal (log2 fold change) was -0.0725.
Turning to “GGUCACGUCUCAAUCAACUCCAUAGAGGGGGGGAAAACCCCUUUGCCCUCACCUUCAACAGCUCGCAGUCAAG”, the binding signal (log2 fold change) was -0.11.
Take “GGUCACGUCUCAAUCAACUCAAUCUCCAGGGAAAUCCCUGGCUAUCUCAACAGCUCGCAGUCAAG”: the binding signal (log2 fold change) came to 0.00171.
With “GGUCACGUCUCAAUCAACUCUUCCCCAGGAGUUUUCUCCUGCAAACUCAACAGCUCGCAGUCAAG” the figure was 0.0573; with “GGUCACGUCUCAAUCAACUCUUUCGAGGGGGGGAAAACCCCUUUACCCUCACAAUCAACAGCUCGCAGUCAAG”, -0.0699.
